Source: PubChem BioAssay AID1948 (National Center for Advancing Translational Sciences (NCATS), 2009)
Among all 110,000 compounds or so, about 20 (0.02%) were called active. Inconclusive results, whose numbers are uncertain, are shown with a selection of clear calls. Calls follow the shape of the dose curve; as a rule, active = well fitted activation curve with a large enough effect; inconclusive = small, poorly fitted or top-dose-only effect; inactive = no such curve, though single readings can be large or run the other way. Potencies of inconclusive entries are left out as doubtful fits.

Experiment: qHTS Assay for Compounds that Induce Erasure of Genomic Imprints;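 as to activity change, positive = activation: 0% = negative control wells on the plate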
Conditions: mouse ES Peg3-LacZ reporter, beta-gal luminescence, 40 h; activity change, positive = activation: at 10.9 µM (top of the series) unless noted
How it was run: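 Imprint erasure is scored as LacZ activity from the silenced maternal Peg3 allele in feeder-free female ES cells cultured 40 h with LIF. Luminescence is normalized to in-plate negative controls and fitted to the Hill equation.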
Potency is read from the fitted curve at half-maximal effect; tags tell the direction and shape of the fitted curve.

| SMILES | Potency | activity change, positive = activation |
| --- | --- | --- |
| COc1cnc(NS(=O)(=O)c2ccc(N)cc2)nc1 | inconclusive [activator, single point] |  |
| CCON=C1C(C)(C)C(C)(C)C(C)(C)C1(C)C | inconclusive [activator, single point] |  |
| CC1CNCCN1S(=O)(=O)c1cccc2cnccc12 (stereo unspecified) | inconclusive [activator, single point] |  |
| Cc1ccc(CCNC(=O)CCn2nc(-c3ccc(C)cc3)ccc2=O)cc1 |  | inconclusive: 89.5% [activator] |
| CC(C)(C)c1ccc(C(=O)/C=C2\NC(=O)CS2)cc1 |  | inactive: -56.9% [at 60.7 µM] |
| COc1cccc(CNC(=O)CN2C(=O)N(c3cccc(Cl)c3)S(=O)(=O)c3ccccc32)c1OC |  | inactive: -11.7% |
| CNc1ccnc(-c2c(C)noc2C)n1 | inconclusive [activator, single point] |  |
| Cc1noc(C)c1-c1nccc(NCc2cccs2)n1 | inconclusive [activator, full curve, poor fit] |  |
| COc1ccc2nc(NC(=O)c3cc(=O)c4cc(C)cc(C)c4o3)sc2c1 |  | inactive: -2.06% |
| Cc1ccc(P(=Nc2ccccc2)(N2CCOCC2)N2CCOCC2)o1 | inconclusive [activator, single point] |  |
| Cc1cc(C)nc(-n2nc(C)c(Sc3ccc(F)cc3)c2N)n1 |  | inactive: -67% [at 60.7 µM] |
| CC(C(=O)N1CCc2ccccc21)N1CCc2ccccc2C1 (stereo unspecified) | inconclusive [activator, single point] |  |
| Cc1sc(-n2cccc2)c(C(=O)O)c1C | inconclusive [activator, single point] |  |
| CC(C)(C)OC(=O)N1CCC(c2c(C(=O)NCc3ccc(F)cc3)cnn2-c2ccc(F)cc2)CC1 |  | inactive: 6.3% |
| O=c1cnc2cnc(N3CCNCC3)nc2n1C1CC1 | inconclusive [activator, partial curve] |  |
| COc1cc(OC)c(NC(=O)CCCn2nc(C)c3sc4ccccc4c3c2=O)cc1Cl |  | inactive: -21.6% |
| COc1nc(-c2ccc(C)cc2)ccc1-c1noc(-c2ccccc2Br)n1 |  | inactive: -4.18% |
| Cc1[nH]nc2c1C(c1ccc(Cl)cc1)C(C#N)=C(N)O2 (stereo unspecified) | inconclusive [activator, partial curve] |  |
| NC(N)=NC(N)=Nc1ccc(S(N)(=O)=O)cc1 | inconclusive [activator, single point] |  |
| O=S(=O)(NCC1CCCO1)c1ccc(Br)s1 (stereo unspecified) | inconclusive [activator, single point] |  |
| COc1ccc(-c2nc3cc(C(C)C)ccc3o2)cc1NC(=O)c1ccccc1[N+](=O)[O-] |  | inactive: -22.6% |
| COC(=O)c1ccc(NC(=O)CC2C(=O)N(c3cccc(OC)c3)C(=O)N2Cc2ccco2)cc1 (stereo unspecified) |  | inactive: -8.17% |
| CCNc1ncc2nc(-c3ccc(F)cc3)c(=O)n(Cc3ccc(F)cc3)c2n1 | inconclusive [activator, partial curve] |  |
| O=C(Nc1cccc2ccccc12)c1ccc(Br)o1 |  | inactive: -5.8% [at 60.7 µM] |

| SMILES | Potency | activity change, positive = activation |
| --- | --- | --- |
| Cc1c(C(=O)NC(C)c2ccccc2)sc2ncnc(N(C)C3CCCCC3)c12 (stereo unspecified) |  | inactive: -17.2% |
| N#Cc1cc2c(=O)n3ccccc3nc2n(CCCn2ccnc2)c1=N |  | inactive: 2.62% [at 60.7 µM] |
| COc1ccc(NC(=O)CCS(=O)(=O)c2nc(-c3ccc4c(c3)OCO4)cc(C(F)(F)F)n2)cc1OC |  | inactive: -1.85% |
| CCN(C(=O)c1ccco1)c1nc(CC(=O)Nc2ccc(Cl)cc2)cs1 | inconclusive [activator, single point] |  |
| O=C(CCc1ccccc1)NC1CC(=O)N(c2cccc(F)c2)C1 (stereo unspecified) |  | inconclusive: 85.3% [activator] |
| CCN1CCN(C(c2ccccc2Cl)c2sc3nc(-c4ccco4)nn3c2O)CC1 (stereo unspecified) |  | inconclusive: 88.5% [activator] |
| CCOc1ccc(NC(=O)Cn2nc3c(cc2=O)CC(C)CC3)cc1 (stereo unspecified) |  | inconclusive: 60.2% [activator] |
| CCCSc1nc2c(cnn2-c2ccccc2)c(=O)[nH]1 |  | inactive: -16.7% [at 60.7 µM] |
| CCN(c1ccccc1)S(=O)(=O)c1nnc(NC(=O)C2CCCCC2)s1 |  | inconclusive: 79.9% [activator] |
| Cc1ccc(N(CC(=O)N2CCN(c3ccccc3)CC2)S(=O)(=O)c2c(C)noc2C)cc1 |  | inconclusive: 35.1% [activator] |
| O=C(CN1C(=O)CSc2ccc(S(=O)(=O)N3CCOCC3)cc21)NCCCN1CCCCC1 |  | inconclusive: 159% [activator] |
| COc1ccc(OC)c(NC(=O)CSC2=Nc3ccccc3C3=NC(CC(=O)NCCc4ccccc4)C(=O)N23)c1 (stereo unspecified) |  | inconclusive: 54.7% [activator] |
| CC(=O)c1ccc(OCC(O)CN2CCC(C)CC2)cc1 (stereo unspecified) |  | inactive: -14.1% [at 60.7 µM] |
| COc1ccc(Nc2nn3c(=O)c4cc5c(cc4nc3s2)OCO5)c(OC)c1 |  | inconclusive: 31.6% [activator] |
| COC(=O)c1ccc(NC(=O)C2CCN(S(C)(=O)=O)CC2)cc1 | inconclusive [activator, single point] |  |
| Cc1nnc(SCC(=O)c2c(N)n(C)c(=O)n(C)c2=O)[nH]c1=O |  | inactive: -4.61% [at 60.7 µM] |
| COCCCNC(=O)c1cnc2sc(N3CCCCC3)nn2c1=O |  | inconclusive: 46.7% [activator] |
| COc1ccc(-c2nc(NC(=O)c3cc(C(C)(C)C)nn3C)sc2C)cc1 | inconclusive [activator, single point] |  |
| CCCCOc1ccc(C(=O)Nc2ccc(S(=O)(=O)Nc3cc(C)on3)cc2)cc1OC | inconclusive [activator, single point] |  |
| Cc1ccc(CNS(=O)(=O)c2ccc3c(c2)CCN3S(C)(=O)=O)cc1 |  | inconclusive: 41.8% [activator] |
| CC(=O)N1CCCc2cc(S(=O)(=O)N3CCC(C(=O)NCc4ccc(N(C)C)cc4)CC3)ccc21 |  | inconclusive: 49.3% [activator] |
| COc1ccc(-c2nc3cnc(N4CCOCC4)nc3n(C[C@H]3CCCO3)c2=O)cc1 | inconclusive [activator, single point] |  |
| COC(=O)c1ccccc1NC(=O)c1ccc2c(c1)CCN2S(C)(=O)=O |  | inactive: -6.18% |
| Cc1ccc(CSc2nc3c([nH]c4ccccc43)c(=O)n2C)cc1 |  | inconclusive: 32.7% [activator] |

| SMILES | Potency | activity change, positive = activation |
| --- | --- | --- |
| Cn1c(=O)c2c(nc3n(-c4ccc(O)cc4)c(-c4ccc(Br)cc4)cn23)n(C)c1=O |  | inconclusive: 33.9% [activator] |
| O=S1(=O)CCC(NS(=O)(=O)/C=C/c2ccccc2)C1 (stereo unspecified) | inconclusive [activator, single point] |  |
| Cc1cc(C(=O)CSc2nnnn2C)c(C)n1CCc1ccc(F)cc1 | inconclusive [activator, single point] |  |
| COc1ccc(-n2c(SCC(=O)Nc3ccc4c(c3)OCO4)nc3ccccc3c2=O)cc1 |  | inactive: -8.18% [at 60.7 µM] |
| O=C(Cn1c(=O)c(C(F)(F)F)nc2ccccc21)Nc1cccc(Br)c1 |  | inconclusive: 33.3% [activator] |
| COc1cccc(-c2ccc3ncnc(NCc4cnc(C)cn4)c3c2)c1 | inconclusive [activator, single point] |  |
| Fc1ccc(Nc2ncnc3ccc(-c4ccoc4)cc23)cc1 | inconclusive [activator, single point] |  |
| CCOc1ccc(C(=O)NCC(c2ccc3c(c2)OCO3)N2CCOCC2)cc1 (stereo unspecified) |  | inconclusive: 33.7% [activator] |
| CC(=O)c1ccc(N2C(=O)N(Cc3ccccc3C#N)c3ccccc3S2(=O)=O)cc1 |  | inconclusive: 37.9% [activator] |
| COc1cc2[nH]c(=O)n(Cc3ccc(C(=O)N4CCN(c5cc(Cl)ccc5C)CC4)cc3)c(=O)c2cc1OC |  | inconclusive: 33.6% [activator] |
| COC(=O)C1CCN(CC(=O)Nc2cc(C)c3c(=O)oc4ccccc4c3n2)CC1 |  | inconclusive: 31.6% [activator] |
| CCOCC(=O)Nc1c(C(=O)Nc2ccc(OC)cc2OC)oc2ccccc12 | inconclusive [activator, full curve, poor fit] |  |
| COc1cc(OC)c(NC(=O)C2CCN(C(=O)c3sc4nc[nH]c(=O)c4c3C)CC2)cc1Cl |  | inconclusive: 31.8% [activator] |
| CS(=O)(=O)Nc1cccc(-c2ccc3ncnc(NCc4cccnc4)c3c2)c1 | inconclusive [activator, full curve, poor fit] |  |
| CCNc1ncc2nc(-c3cccc(C#N)c3)c(=O)n(CCC#N)c2n1 |  | inactive: 7.1% [at 60.7 µM] |
| CCOc1cc2[nH]c(=O)n(CCCCC(=O)N3CCN(c4cccc(Cl)c4)CC3)c(=O)c2cc1OCC |  | inconclusive: 30.6% [activator] |
| O=C(O)CCn1c(=O)c2cccn2c2cccnc21 |  | inconclusive: 40.9% [activator] |
| CCNc1ncc2nc(C)c(=O)n(C[C@H]3CCCO3)c2n1 | inconclusive [activator, single point] |  |
| N#Cc1cccc(-c2ccc3ncnc(NCc4ccccc4)c3c2)c1 | inconclusive [activator, single point] |  |
| Cn1c(=O)oc2cc(S(=O)(=O)NCCC(=O)N3CC=C(c4ccccc4)CC3)ccc21 | inconclusive [activator, single point] |  |
| COc1cc(OC)c(NS(=O)(=O)c2ccc3oc(=O)c4ncn(C)c4c3c2)cc1Cl |  | inconclusive: 30.8% [activator] |
| CC(C)c1ccc(NC(=O)c2cc(S(=O)(=O)N(C)C3CCCCC3)ccc2F)cc1 |  | inconclusive: 32.8% [activator] |
| Cc1ccc2c(=O)cc(C(=O)Nc3ccc(S(=O)(=O)Nc4onc(C)c4C)cc3)oc2c1C |  | inconclusive: 43.3% [activator] |
